# In all, about 280,000 compounds went through this assay and about 1,100 (0.39%) were called active. Inconclusive results, whose numbers are uncertain, are shown with a selection of clear calls. Calls come from the whole dose curve; as a rule, active = well fitted inhibition curve with a large enough effect; inconclusive = small, poorly fitted or top-dose-only effect, or effect the other way; inactive = flat fitted curve, though single readings scatter. Potencies of inconclusive entries are left out as doubtful fits.
# Target: Microtubule-associated protein tau (Homo sapiens) (UniProt P10636)
# Assay: qHTS for Inhibitors of Tau Fibril Formation, Fluorescence Polarization; note: nearly all actives have a fitted effect of over 55% in size
# Conditions: K18 P301L tau heparin fibrillization, Alexa594 FP, 6 h; series mostly up to 57.7 µM
# In short: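 Steps: dispense K18 P301L tau (15 uM plus 0.24 uM Alexa 594 tracer, final) in pH 7 sodium acetate; add compound; add heparin (20 uM final); incubate 6 hr, 37 C; add ThT (30 uM final); after 1 hr ambient, read FP.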
# Potency is the fitted concentration of half-maximal effect; tags give direction and shape of the fitted curve.
# Chain of UniProt P10636 (P10636 whole entry, looked up): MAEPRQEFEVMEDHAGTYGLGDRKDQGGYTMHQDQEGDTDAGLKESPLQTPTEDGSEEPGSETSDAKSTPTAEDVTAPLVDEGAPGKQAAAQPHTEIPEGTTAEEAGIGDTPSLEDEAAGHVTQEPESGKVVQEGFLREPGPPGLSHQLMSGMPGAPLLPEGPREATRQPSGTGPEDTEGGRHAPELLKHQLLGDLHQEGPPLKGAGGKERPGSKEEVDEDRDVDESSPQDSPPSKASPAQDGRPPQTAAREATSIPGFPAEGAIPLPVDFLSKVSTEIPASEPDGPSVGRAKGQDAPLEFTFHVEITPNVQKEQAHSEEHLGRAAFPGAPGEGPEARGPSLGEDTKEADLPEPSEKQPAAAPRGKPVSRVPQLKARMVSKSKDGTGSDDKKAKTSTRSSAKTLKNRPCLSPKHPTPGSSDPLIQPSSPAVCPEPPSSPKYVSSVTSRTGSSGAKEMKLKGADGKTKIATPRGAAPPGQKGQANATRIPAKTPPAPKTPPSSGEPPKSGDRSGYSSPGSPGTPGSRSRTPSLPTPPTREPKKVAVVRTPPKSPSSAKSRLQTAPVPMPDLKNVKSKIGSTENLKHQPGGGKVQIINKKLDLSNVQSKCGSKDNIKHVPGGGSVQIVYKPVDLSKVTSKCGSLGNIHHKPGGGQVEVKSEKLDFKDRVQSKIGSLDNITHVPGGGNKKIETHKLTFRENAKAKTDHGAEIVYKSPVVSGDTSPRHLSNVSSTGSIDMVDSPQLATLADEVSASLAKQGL
row,Compound,Potency
1,Cc1cccc(COC[C@H](Cc2ccccc2)N2CCN(C(=O)c3cccc(Cl)c3)CCC2=O)c1,"inconclusive [activator, single point]"
2,C/C(=N/NS(=O)(=O)c1ccc(C)cc1)c1cccc(NC(=O)c2cccc(Cl)c2)c1,"inconclusive [inhibitor, partial curve]"
3,CC1(C)C(OC(=O)CCC(=O)O)CC[C@]2(C)C1CC[C@@]1(C)C2C(=O)C=C2[C@@H]3C[C@@](C)(C(=O)O)CC[C@]3(C)CCC21C (stereo partly drawn),inactive
4,FC(F)(F)c1cccc(NC(=S)N(CCCN2CCCC2)Cc2cccn2Cc2ccc(Cl)cc2)c1,inactive
5,COc1cnc(SCc2ccc(Cl)cc2)nc1Cl,"inconclusive [inhibitor, single point]"
6,Cc1cc(C)c([N+](=O)[O-])cc1-c1ccc(/C=N/c2c(-c3ccco3)nc3ccccn23)o1,"inconclusive [inhibitor, single point]"
7,CC(=O)[C@]1(O)Cc2c(O)c3c(c(O)c2[C@@H](O[C@H]2C[C@H](N)[C@H](O)[C@H](C)O2)C1)C(=O)c1c(O)cccc1C3=O,active: 25.1 µM
8,CCOC(=O)N1CCC(Nc2c(Nc3cccc(CC)c3)c(=O)c2=O)CC1,"inconclusive [activator, full curve]"
9,Cc1onc(-c2ccccc2)c1NC(=O)Nc1ccc(OC(F)F)cc1,"inconclusive [inhibitor, full curve, poor fit]"
10,COc1ccc(Cn2c(C)c(C)c(C#N)c2NC(=O)Nc2ccc(Cl)cc2)cc1,"inconclusive [inhibitor, single point]"
11,C[C@@H](NC(=O)c1nc[nH]c1C(=O)N[C@@H](CCCCNC(=O)OC(C)(C)C)C(=O)OC(C)(C)C)c1ccccc1,"inconclusive [inhibitor, single point]"
12,Cc1cccc(C(=O)Nc2sc3c(c2C(=O)O)CCC3)c1,"inconclusive [activator, single point]"
13,O=C(O)c1cccc(NC(=O)c2cccc(S(=O)(=O)Nc3cccc(F)c3)c2)c1,inactive
14,O=S(=O)(Nc1ccc(-c2ccc(N3CCCC3)nn2)cc1)c1ccccc1Cl,inactive
15,CC(=O)C1CCN(Cc2ccccc2)CC1,inactive
16,C/C(=N\Nc1nc(-c2ccccc2O)nc2ccccc12)c1ccccc1,inactive
17,COc1ccc(NC(=O)c2cc(S(=O)(=O)Nc3ccc(OC)cc3)cs2)cc1,"inconclusive [inhibitor, partial curve]"
18,Cc1ccc2nc(N3CC(=O)Nc4ccccc43)nc(-c3ccccc3)c2c1,"inconclusive [inhibitor, single point]"
19,O=C1c2ccccc2C(=O)c2c1ccc(C(=O)N1CCCCC1)c2NCCO,inactive
20,CCOc1ccc2nc(NCCNC(=O)C(C)C)c(C)cc2c1,"inconclusive [inhibitor, single point]"
21,Cc1cc2c(NC(=O)Nc3ccc(F)cc3)cccc2nn1,"inconclusive [inhibitor, single point]"
22,CCOC(=O)/C(=C\c1cccc(O)c1)c1nc2sc(C)c(C)c2c(=O)[nH]1,"inconclusive [inhibitor, single point]"

row,Compound,Potency
1,COC(=O)C1=C(C)NC(=O)/C1=C\N(C)C,"inconclusive [inhibitor, partial curve]"
2,O=C(CSc1cccs1)Nc1ccc2ccccc2c1,inactive
3,Cc1cc(C=NCCCO)c(C)n1-c1cc(Cl)ccc1Cl,inactive
4,CN1CCN(CCCNC(=O)c2ccc3c(c2)N(Cc2ccccc2)CCS3)CC1,"inconclusive [activator, full curve]"
5,CCn1cc(C(C)NC(=O)COc2ccc(Cl)cc2C)c(C)n1 (stereo not drawn),inactive
6,Cc1c2ccccc2cc[n+]1CCCS(=O)(=O)[O-],inactive
7,c1ccc(-c2cn3c(n2)SCC3)cc1,"inconclusive [inhibitor, single point]"
8,C[C@@H](C(=O)Nc1ccc2ccccc2c1)[C@@H]1C[C@@]1(C)[C@@H](NS(=O)(=O)c1ccccc1)c1ccccc1,"inconclusive [inhibitor, full curve]"
9,CN(Cc1ccccc1)S(=O)(=O)c1ccc(F)c(C(=O)Nc2cc(Cl)cc(Cl)c2)c1,"inconclusive [inhibitor, single point]"
10,O=C(NCc1ccccc1)c1ccc(Cn2c(=O)c3cccn3c3cccnc32)cc1,inactive
11,O=C(Nc1ccc2nn(-c3ccccc3)nc2c1)c1ccc2c(c1)OCCO2,"inconclusive [inhibitor, partial curve]"
12,Cc1cccc(C(=O)NCC(=O)OCc2cc(=O)n3nc(C)sc3n2)c1,inactive
13,CO[C@@H]1COC(=O)C/C=C\[C@@H](C)[C@H](OC)COC(=O)[C@H](COCc2ccccc2)NC(=O)C/C=C\[C@H]1C,"inconclusive [inhibitor, single point]"
14,CC(C)n1cc(/C=C(\C#N)S(=O)(=O)c2ccccc2)c2ccccc21,"inconclusive [inhibitor, single point]"
15,Cc1ccc(C(=O)c2ccc(C)cc2)cc1,inactive
16,Cn1c2c(c(=O)n(C)c1=O)C(c1ccccc1F)C(C#N)=C(N)O2 (stereo not drawn),"inconclusive [inhibitor, partial curve, poor fit]"
17,Cc1ccc(Cn2cc3c(n2)-c2c(oc(C(=O)Nc4ccc(F)cc4F)c2C)CC3)cc1,inactive
18,CCOC(=O)c1ccc(NC(=O)Cn2cc(S(=O)(=O)Cc3ccccc3F)c3ccccc32)cc1,"inconclusive [inhibitor, partial curve, poor fit]"
19,N#CN(CC(N)=O)c1nc(N2CCCCC2)nc(N2CCCCC2)n1,inactive
20,CCC(=O)Nc1ccc(OCc2nc3ccccc3s2)cc1,"inconclusive [inhibitor, single point]"
21,COc1ccc(-c2ccc(NS(=O)(=O)c3ccccc3Cl)cc2)nn1,"inconclusive [inhibitor, single point]"

# From PubChem BioAssay AID1468 (National Center for Advancing Translational Sciences (NCATS), 2008)
